Assay results from PubChem BioAssay AID1345083 (National Center for Advancing Translational Sciences (NCATS), 2018).
The campaign covered roughly 94,000 compounds. About 6,200 (6.6%) were called active. Inconclusive means that the source gave no clear call. Such entries were picked first, then a sample of the others. Calls follow the shape of the dose curve; as a rule, active = well fitted inhibition curve with a large enough effect; inconclusive = small, poorly fitted or top-dose-only effect; inactive = flat fitted curve, though single readings scatter. Where the call is inconclusive, the potency comes from a doubtful curve fit.

Experiment: Cytotoxic Profiling in HEK 293 Cell Line of Diverse Libraries Using Quantitative High-Throughput Screening; also: nearly all actives have a fitted effect of over 60% in size
Settings: HEK 293 viability, ATP luminescence (CellTiter-Glo), 48-72 h; series mostly up to 115 µM
From the text: Cell-based phenotypic screening is a commonly used approach to discover biological pathways, novel drug targets, chemical probes and high-quality hit-to-lead molecules. Many hits identified from high-throughput screening campaign are ruled out through a series of follow-up potency, selectivity/specificity, and cytotoxicity assays. Prioritization of molecules with little or no cytotoxicity for a more in-depth downstream evaluation influence the future direction of projects, so cytotoxicity profiling of the screening libraries at early stage is essential for increasing the likelihood of candidate success. In this study, we analyzed results from a cell-based cytotoxicity screening campaign, comprising nearly 10,000 compounds in NCATS annotated libraries, and over 100,000 compounds in a diversity library, evaluated in four normal cell lines (HEK 293, NIH 3T3, CRL-7250 and HaCat) and a cancer cell line (KB 3-1, a HeLa subline) with overall screening outcomes, hit rates, pan-activity and selectivity. For the annotated library, we also examined the primary targets and mechanistic pathways regularly associated with cell death. To our knowledge, this is the first study to use high-throughput screening to profile large libraries for cytotoxicity assessment in both normal and cancer cell lines. In summary, the results generated here constitutes a valuable resource for the scientific community and provides insight on identifying cytotoxic compounds with particular mechanisms of action, and prioritizing compounds with suitable cytotoxicity profile for further evaluation.
HEK 293 cells were seeded into white 1536-well plates using a Multidrop Combi peristaltic dispenser (ThermoFisher, Waltham, MA) at a density of 250 cells/well in 5 uL of medium respectively. A pintool (Kalypsys) was used to transfer 23 nL of compound solution to the 1536-well assay plates. After 48 or 72 hr incubation at 37 degree Celsius, 5% CO2 and 95% humidity, 2.5 uL of CellTiter-Glo (Promega) was dispensed into each well using a dispenser (Aspect Automation, St. Paul, MN) with solenoid valves (Lee Valves, Westbrook CT). Plates were left at room temperature for 10 min before imaging the ATP-coupled luminescence using a ViewLux microplate imager (PerkinElmer, Waltham, MA).
Potency is read from the fitted curve at half-maximal effect; tags tell the direction and shape of the fitted curve.

| Compound | Potency |
| --- | --- |
| O=C1NC(=NC2CCCC2)C2(CCN(Cc3ccc(F)cc3)C2)N1c1cccnc1 (configuration not stated) | inactive |
| Cc1cccc(-c2ncc3c(n2)OCCN(c2cccc(C(F)(F)F)c2)C3=O)c1 | inconclusive: 63.1 µM [inhibitor, partial curve, poor fit] |
| Cc1ccsc1[C@@H]1CCN(Cc2ccc(C#CC(C)(C)O)cc2)C[C@H]1O | inconclusive: 44.7 µM [inhibitor, partial curve, poor fit] |
| Cc1cc(S(=O)(=O)N2CCCC(Cn3cnc4cccnc43)C2)ccc1Cl (configuration not stated) | inconclusive: 79.4 µM [inhibitor, partial curve, poor fit] |
| COc1ccc2c(c1)cc(C(=O)N1Cc3[nH]cnc3CC1C(=O)O)n2C (configuration not stated) | inactive |
| COc1cccc(C(=O)N2CCC(N3C(=O)c4c(c(C)nn4-c4ccccc4)C3C(C)C)CC2)c1 (configuration not stated) | active: 44.7 µM |
| Cc1nn(-c2ccc(C(F)(F)F)cc2)c(C)c1[C@@H]1C=C[C@@H](NC(=O)c2ccc(N(C)C)cc2)C1 | inconclusive: 44.7 µM [inhibitor, partial curve, poor fit] |
| CC(C)NC(=O)c1nc2sccn2c1-c1ccc(C(F)(F)F)cc1 | inconclusive: 112 µM [inhibitor, partial curve, poor fit] |
| CCc1nc2c(c(-c3ccc(Cl)cc3)n1)CN(C(=O)c1ccccc1C)CC2 | inconclusive: 89.1 µM [inhibitor, single point] |
| O=C(NCc1cccc(F)c1)C1CCCN1Cc1ccc(-c2cncnc2)cc1 (configuration not stated) | inconclusive: 79.4 µM [inhibitor, single point] |
| Cc1ccc(NC(=O)Nc2ccc(C)n(CC(=O)NC(C)c3cccnc3)c2=O)cc1 (configuration not stated) | inconclusive: 100 µM [inhibitor, single point] |
| CN(C)C(=O)c1ccnc(-c2nnc3ccc(N4CCCCC4)nn23)c1 | inactive |
| CC(C)CCNC(=O)c1cnc2c(c1)N(C(=O)Cc1cccc(C(F)(F)F)c1)CCC2 | inconclusive: 112 µM [inhibitor, partial curve] |
| COc1cccc(CN2C[C@@H](CO)[C@H](c3ccncc3)C2)c1OC | active: 89.1 µM |
| COc1cccc(C(=O)N2CCN(c3ccnc4ccnn34)CC2)c1 | inconclusive: 79.4 µM [inhibitor, partial curve, poor fit] |
| CCn1cc(CN2CCCC(COc3ccccc3C(=O)N3CCCC3)C2)c2ccccc21 (configuration not stated) | inconclusive: 56.2 µM [inhibitor, partial curve, poor fit] |
| Cc1noc(-c2ccccc2Cl)c1C(=O)NCCOc1ccccc1 | inconclusive: 79.4 µM [inhibitor, partial curve, poor fit] |
